Experimental data taken from the supplement of paper PMC8728848.
The other results are listed elsewhere or left out.

Tests used:
Experiment in all cases: glycan array binding signal (z-score within array); higher = stronger binding
Conditions in all cases: glycan notation: IUPAC condensed, linker removed
[1] = molecular target: Fuc(a1-2)[GalNAc(a1-3)]Gal(b1-3)GlcNAc(b1-3)GalNAc
Method in brief: (§1)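 Glycan array data came from 3228 arrays in the Consortium for Functional Glycomics database, and only arrays with an available protein sequence were kept. Glycan names were put into IUPAC-condensed notation, and columns mapping to the same glycan were averaged. The binding signal is a within-array Z-score, averaged across arrays of one protein sequence run at different concentrations or buffers and across linkers. A negative Z-score can be read as non-binding.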

[2] = molecular target: Fuc(a1-2)[GalNAc(a1-3)]Gal(b1-3)GlcNAc(b1-6)GalNAc
Method in brief: as §1

[3] = molecular target: Fuc(a1-2)[GalNAc(a1-3)]Gal(b1-4)Glc
Method in brief: as §1

[4] = molecular target: Fuc(a1-2)[GalNAc(a1-3)]Gal(b1-4)GlcNAc
Method in brief: as §1

[5] = molecular target: Fuc(a1-2)[GalNAc(a1-3)]Gal(b1-4)GlcNAc(b1-2)Man
Method in brief: as §1

[6] = molecular target: Fuc(a1-2)[GalNAc(a1-3)]Gal(b1-4)GlcNAc(b1-2)Man(a1-3)[Fuc(a1-2)[GalNAc(a1-3)]Gal(b1-4)GlcNAc(b1-2)Man(a1-6)]Man(b1-4)GlcNAc(b1-4)GlcNAc
Method in brief: as §1

[7] = molecular target: Fuc(a1-2)[GalNAc(a1-3)]Gal(b1-4)GlcNAc(b1-2)Man(a1-3)[Fuc(a1-2)[GalNAc(a1-3)]Gal(b1-4)GlcNAc(b1-2)Man(a1-6)]Man(b1-4)GlcNAc(b1-4)[Fuc(a1-6)]GlcNAc
Method in brief: as §1

[8] = molecular target: Fuc(a1-2)[GalNAc(a1-3)]Gal(b1-4)GlcNAc(b1-3)Gal(b1-4)GlcNAc
Method in brief: as §1

[9] = molecular target: Fuc(a1-2)[GalNAc(a1-3)]Gal(b1-4)GlcNAc(b1-3)Gal(b1-4)GlcNAc(b1-3)Gal(b1-4)GlcNAc
Method in brief: as §1

[10] = molecular target: Fuc(a1-2)[GalNAc(a1-3)]Gal(b1-4)GlcNAc(b1-3)GalNAc
Method in brief: as §1

[11] = molecular target: Fuc(a1-2)[GalNAc(a1-3)]Gal(b1-4)GlcNAc(b1-3)[Fuc(a1-2)[GalNAc(a1-3)]Gal(b1-4)GlcNAc(b1-6)]GalNAc
Method in brief: as §1

[12] = molecular target: Fuc(a1-2)[GalNAc(a1-3)]Gal(b1-4)GlcNAc(b1-6)GalNAc
Method in brief: as §1

[13] = molecular target: Fuc(a1-2)[GalNAc(a1-3)]Gal(b1-4)[Fuc(a1-3)]GlcNAc
Method in brief: as §1

[14] = molecular target: Fuc(a1-2)[GalNAc(a1-3)]Gal(b1-4)[Fuc(a1-3)]GlcNAc(b1-3)GalNAc
Method in brief: as §1

[15] = molecular target: Fuc(a1-2)[GalNAc(a1-4)]Gal(b1-4)GlcNAc
Method in brief: as §1

[16] = molecular target: Fuc(a1-2)[GalNAc(b1-3)]Gal
Method in brief: as §1

Fuc(a1-3)GlcNAc = molecular target: Fuc(a1-3)GlcNAc
Method in brief: as §1

[17] = molecular target: Fuc(a1-3)[Gal(b1-4)]Glc6S
Method in brief: as §1

[18] = molecular target: Fuc(a1-3)[Gal(b1-4)]GlcNAc
Method in brief: as §1

[19] = molecular target: Fuc(a1-3)[Gal(b1-4)]GlcNAc(b1-2)Man
Method in brief: as §1

[20] = molecular target: Fuc(a1-3)[Gal(b1-4)]GlcNAc(b1-2)Man(a1-3)[Fuc(a1-3)[Gal(b1-4)]GlcNAc(b1-2)Man(a1-6)]Man(b1-4)GlcNAc(b1-4)GlcNAc
Method in brief: as §1

[21] = molecular target: Fuc(a1-3)[Gal(b1-4)]GlcNAc(b1-2)Man(a1-3)[Fuc(a1-3)[Gal(b1-4)]GlcNAc(b1-2)Man(a1-6)]Man(b1-4)GlcNAc(b1-4)[Fuc(a1-6)]GlcNAc
Method in brief: as §1

[22] = molecular target: Fuc(a1-3)[Gal(b1-4)]GlcNAc(b1-3)Gal(b1-3)[Fuc(a1-4)]GlcNAc
Method in brief: as §1

[23] = molecular target: Fuc(a1-3)[Gal(b1-4)]GlcNAc(b1-3)Gal(b1-4)[Fuc(a1-3)]GlcNAc
Method in brief: as §1

[24] = molecular target: Fuc(a1-3)[Gal(b1-4)]GlcNAc(b1-3)Gal(b1-4)[Fuc(a1-3)]GlcNAc(b1-3)Gal(b1-4)[Fuc(a1-3)]GlcNAc
Method in brief: as §1

[25] = molecular target: Fuc(a1-3)[Gal(b1-4)]GlcNAc(b1-3)GalNAc
Method in brief: as §1

[26] = molecular target: Fuc(a1-3)[Gal(b1-4)]GlcNAc(b1-4)Gal(b1-4)[Fuc(a1-3)]GlcNAc
Method in brief: as §1

[27] = molecular target: Fuc(a1-3)[Gal(b1-4)]GlcNAc(b1-4)Gal(b1-4)[Fuc(a1-3)]GlcNAc(b1-4)Gal(b1-4)[Fuc(a1-3)]GlcNAc
Method in brief: as §1

[28] = molecular target: Fuc(a1-3)[Gal(b1-4)]GlcNAc(b1-6)GalNAc
Method in brief: as §1

[29] = molecular target: Fuc(a1-3)[Gal(b1-4)]GlcNAc(b1-6)[Gal(b1-3)GlcNAc(b1-3)]Gal(b1-4)Glc
Method in brief: as §1

[30] = molecular target: Fuc(a1-3)[Gal(b1-4)]GlcNAc6S
Method in brief: as §1

[31] = molecular target: Fuc(a1-3)[Gal3S(b1-4)]Glc
Method in brief: as §1

[32] = molecular target: Fuc(a1-3)[Gal3S(b1-4)]GlcNAc
Method in brief: as §1

[33] = molecular target: Fuc(a1-3)[Gal3S(b1-4)]GlcNAc6S
Method in brief: as §1

[34] = molecular target: Fuc(a1-3)[GalNAc(b1-4)]GlcNAc
Method in brief: as §1

[35] = molecular target: Fuc(a1-3)[GalNAc(b1-4)]GlcNAc6S
Method in brief: as §1

Fuc(a1-4)GlcNAc = molecular target: Fuc(a1-4)GlcNAc
Method in brief: as §1

Fuc(b1-3)GlcNAc = molecular target: Fuc(b1-3)GlcNAc
Method in brief: as §1

Gal(a1-2)Gal = molecular target: Gal(a1-2)Gal
Method in brief: as §1

Gal(a1-3)Gal = molecular target: Gal(a1-3)Gal
Method in brief: as §1

Gal(a1-3)Gal(b1-3)GlcNAc = molecular target: Gal(a1-3)Gal(b1-3)GlcNAc
Method in brief: as §1

[36] = molecular target: Gal(a1-3)Gal(b1-3)GlcNAc(b1-2)Man
Method in brief: as §1

[37] = molecular target: Gal(a1-3)Gal(b1-3)GlcNAc(b1-2)Man(a1-3)[Gal(a1-3)Gal(b1-3)GlcNAc(b1-2)Man(a1-6)]Man(b1-4)GlcNAc(b1-4)GlcNAc
Method in brief: as §1

[38] = molecular target: Gal(a1-3)Gal(b1-3)GlcNAc(b1-3)GalNAc
Method in brief: as §1

[39] = molecular target: Gal(a1-3)Gal(b1-3)GlcNAc(b1-6)GalNAc
Method in brief: as §1

B1: HHA (Hippeastrum hybrid) (protein)
chain: MQQDCNLVLYDVDKPIWASNTGGLARDCHLNMQSDGNLVVYAPRNQVIWASNTQGENGNYVCILQKDRNVVIYGTARWATGTNIHGAGIVGVPGSAPQNTTAEMIKLVRKYLITK
glycan array binding signal (z-score) [1]: -0.196
glycan array binding signal (z-score) [2]: -0.217
glycan array binding signal (z-score) [3]: -0.217
glycan array binding signal (z-score) [4]: -0.216
glycan array binding signal (z-score) [5]: -0.212
glycan array binding signal (z-score) [6]: -0.159
glycan array binding signal (z-score) [7]: 0.441
glycan array binding signal (z-score) [8]: -0.202
glycan array binding signal (z-score) [9]: -0.145
glycan array binding signal (z-score) [10]: -0.172
glycan array binding signal (z-score) [11]: -0.22
glycan array binding signal (z-score) [12]: -0.21
glycan array binding signal (z-score) [13]: -0.188
glycan array binding signal (z-score) [14]: -0.135
glycan array binding signal (z-score) [15]: -0.208
glycan array binding signal (z-score) [16]: -0.215
glycan array binding signal (z-score) (Fuc(a1-3)GlcNAc): -0.222
glycan array binding signal (z-score) [17]: -0.199
glycan array binding signal (z-score) [18]: -0.218
glycan array binding signal (z-score) [19]: -0.203
glycan array binding signal (z-score) [20]: -0.207
glycan array binding signal (z-score) [21]: -0.189
glycan array binding signal (z-score) [22]: -0.203
glycan array binding signal (z-score) [23]: -0.194
glycan array binding signal (z-score) [24]: -0.203
glycan array binding signal (z-score) [25]: -0.17
glycan array binding signal (z-score) [26]: -0.264
glycan array binding signal (z-score) [27]: -0.255
glycan array binding signal (z-score) [28]: -0.204
glycan array binding signal (z-score) [29]: -0.201
glycan array binding signal (z-score) [30]: -0.196
glycan array binding signal (z-score) [31]: -0.208
glycan array binding signal (z-score) [32]: -0.22
glycan array binding signal (z-score) [33]: -0.208
glycan array binding signal (z-score) [34]: -0.196
glycan array binding signal (z-score) [35]: -0.214
glycan array binding signal (z-score) (Fuc(a1-4)GlcNAc): -0.214
glycan array binding signal (z-score) (Fuc(b1-3)GlcNAc): -0.214
glycan array binding signal (z-score) (Gal(a1-2)Gal): -0.209
glycan array binding signal (z-score) (Gal(a1-3)Gal): -0.194
glycan array binding signal (z-score) (Gal(a1-3)Gal(b1-3)GlcNAc): -0.203
glycan array binding signal (z-score) [36]: -0.209
glycan array binding signal (z-score) [37]: -0.16
glycan array binding signal (z-score) [38]: -0.104
glycan array binding signal (z-score) [39]: -0.203
